{"source": "PubChem BioAssay AID504832", "about": "(National Center for Advancing Translational Sciences (NCATS), 2011)", "note": "Among all 310,000 compounds or so, about 18,000 (5.8%) were called active. The shares of active, inactive and inconclusive entries below differ from those in the screen. Calls follow the shape of the dose curve; as a rule, active = well fitted inhibition curve with a large enough effect; inconclusive = small, poorly fitted or top-dose-only effect, or another doubt; inactive = no such curve, though single readings can be large or run the other way. Potencies of inconclusive entries are left out as doubtful fits.", "data": [{"test": "Primary qHTS for delayed death inhibitors of the malarial parasite plastid, 48 hour incubation; also: potency is read from the fitted curve at half-maximal effect; tags tell the direction and shape of the fitted curve", "details": "P. falciparum luciferase growth in erythrocytes; series mostly up to 28.7 µM", "summary_of_the_method": "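Luciferase-expressing P. falciparum in infected erythrocytes (2% hematocrit, 0.1% parasitemia final) in RPMI 1640/0.5% Albumax were exposed to compound for 48 hours at 37 C, 5% CO2; growth read as luminescence.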", "values": [{"compound": "COc1cccc2cc(C(=O)NC3CC4CCC3C4)oc12", "note": "(configuration not stated)", "Potency": "inconclusive [inhibitor, single point]"}, {"compound": "N#Cc1cccc(C(c2nnnn2C2CCCC2)N2CCCCCC2)c1", "note": "(configuration not stated)", "Potency": "inconclusive [inhibitor, partial curve, poor fit]"}, {"compound": "CC1CCN(S(=O)(=O)c2ccc3c(c2)N(CC(=O)NCCN2C(C)CCCC2C)C(=O)CS3)CC1", "note": "(configuration not stated)", "Potency": "inconclusive [inhibitor, partial curve]"}, {"compound": "CCOC(=O)N(Cc1ccccc1)C(C(=O)O)C(C(=O)O)N(Cc1ccccc1)C(=O)OCC", "note": "(configuration not stated)", "Potency": "inconclusive [inhibitor, full curve, poor fit]"}, {"compound": "CN(C)c1cc(-c2ccc(Cl)cc2Cl)oc(=O)c1Cl", "Potency": "inconclusive [inhibitor, full curve]"}, {"compound": "O=C(NC12CC3CC(CC(C3)C1)C2)c1cc([N+](=O)[O-])ccc1Cl", "Potency": "inconclusive [inhibitor, partial curve]"}, {"compound": "COc1cc(/C=C2\\C(=N)N3N=C(C)SC3=NC2=O)cc(OC)c1OCCOc1ccccc1C", "Potency": "inactive"}, {"compound": "CC(=O)OCC1=C(C(=O)O)N2C(=O)C(NC(=O)c3ccc(F)cc3)C2SC1", "note": "(configuration not stated)", "Potency": "inconclusive [inhibitor, partial curve, poor fit]"}, {"compound": "CC1CCCCC1NC(=O)Cn1cccc1C(=O)c1ccccc1", "note": "(configuration not stated)", "Potency": "inactive"}, {"compound": "Cc1nc(NC(=O)CSc2nccn2C)sc1C(=O)N(C)C", "Potency": "inactive"}, {"compound": "Cc1cccc([C@@H]2[C@@H]3C(=O)N(Cc4ccccc4)C(=O)[C@@H]3[C@]3(Cc4ccccc4)C(=O)N(c4ccccc4)C(=O)N23)c1", "Potency": "active: 10.4 µM"}, {"compound": "OC(CN1c2ccccc2Sc2ccccc21)Cn1nnc2ccccc21", "note": "(configuration not stated)", "Potency": "active: 4.65 µM"}, {"compound": "O=C(Nc1ccc2c(c1)C(=O)N(C1CCCCC1)C2=O)C1CCCO1", "note": "(configuration not stated)", "Potency": "inactive"}, {"compound": "CC(C)(C)NC(=O)C(=O)NNC(=O)c1ccc(C(C)(C)C)cc1", "Potency": "inconclusive [inhibitor, partial curve, poor fit]"}, {"compound": "COc1ccc(NC(=O)NNC(=O)c2ccc3ccccc3c2O)c(OC)c1", "Potency": "inactive"}, {"compound": "COc1ccc(C2=C/C(=C\\c3ccc(OC(C)=O)cc3)C(=O)O2)cc1", "Potency": "inactive"}, {"compound": "CCOC(=O)c1c(C)n(-c2ccccc2)c2ccc(O)cc12", "Potency": "inconclusive [inhibitor, single point]"}, {"compound": "CCc1ccc(/C=N/NC(=O)C(=O)NCCCN2CCOCC2)cc1", "Potency": "inactive"}, {"compound": "COc1ccccc1C(=O)N1CCc2ccccc21", "Potency": "inactive"}, {"compound": "NC(=O)c1cc(S(=O)(=O)Nc2ccc(OC(F)(F)F)cc2)cs1", "Potency": "active: 13.1 µM"}, {"compound": "Cc1cccc(C(=O)NNC(=O)c2ccccc2-n2cccc2)c1", "Potency": "inconclusive [inhibitor, full curve, poor fit]"}, {"compound": "CCN(CCCNC(=O)c1c(C)cc(=O)oc1C)c1cccc(C)c1", "Potency": "inconclusive [inhibitor, single point]"}, {"compound": "CC(=O)c1ccc(NC(=O)[C@@]2(CC(=O)O)CC(/C=C/c3ccccc3)=NO2)cc1", "Potency": "inactive"}, {"compound": "COc1ccc(-c2nc(SCC(=O)NC3CCCC3)c(-c3ccc(OC)cc3)[nH]2)cc1", "Potency": "inconclusive [inhibitor, single point]"}, {"compound": "CC12CCC(=O)N1C(C(=O)Nc1nc(-c3ccccc3Cl)cs1)CS2", "note": "(configuration not stated)", "Potency": "inconclusive [inhibitor, single point]"}, {"compound": "Cn1cc(/C=N\\O)nc2c(=O)n(-c3ccccc3)c(=O)nc1-2", "Potency": "inconclusive [inhibitor, partial curve, poor fit]"}, {"compound": "Cc1nc(-c2cccc(S(=O)(=O)N3CCOCC3)c2)cs1", "Potency": "active: 13.1 µM"}, {"compound": "O=C(CCCN1C(=O)c2cccc3cccc(c23)C1=O)Nc1nccs1", "Potency": "inconclusive [inhibitor, single point]"}, {"compound": "O=C(NCCn1ccc2ccccc21)c1ccc(S(=O)(=O)N2CCCCC2)cc1", "Potency": "active: 11.7 µM"}, {"compound": "Cc1cccc(NC(=O)c2ccc([N+](=O)[O-])o2)c1", "Potency": "active: 13.1 µM"}, {"compound": "O=C1N=C(N2CCCCC2)SC1=C1CCCCC1", "Potency": "inactive"}, {"compound": "CCN(Cc1ccccc1)C(=O)Cc1c[nH]c2ccccc12", "Potency": "inconclusive [inhibitor, partial curve, poor fit]"}, {"compound": "CCN(CC(=O)NCc1ccc(Cl)cc1)C(=O)c1cc2ccccc2o1", "Potency": "inactive"}, {"compound": "Cc1nn(-c2ccccc2)c(N)c1Sc1cccc([N+](=O)[O-])c1", "Potency": "inconclusive [inhibitor, partial curve, poor fit]"}, {"compound": "c1ccc2sc(C3CCNCC3)nc2c1", "Potency": "inactive"}, {"compound": "COc1ccc(/C=C/c2nnc(NC(=O)CSc3ccc(Cl)cc3)s2)cc1", "Potency": "inactive"}, {"compound": "COc1cc(C(=O)NC23CC4CC(CC(C4)C2)C3)cc(OC)c1OC", "Potency": "inconclusive [inhibitor, partial curve, poor fit]"}, {"compound": "Cc1ccnc(NC(=O)CS(=O)(=O)Cc2ccccc2)c1", "Potency": "inactive"}, {"compound": "COc1ccccc1NC(=O)Nc1nnc(Cc2ccc(F)cc2)s1", "Potency": "inactive"}, {"compound": "COc1ccc(N/C(C)=C2/C(=O)C(=O)N(CCO)C2c2ccc(Br)cc2)cc1", "note": "(configuration not stated)", "Potency": "inconclusive [inhibitor, single point]"}, {"compound": "CN(c1nc2nonc2nc1NC1CC1)C1CCOC1", "note": "(configuration not stated)", "Potency": "inconclusive [inhibitor, single point]"}, {"compound": "CCOC(=O)c1sc(Nc2cccc(C)c2C)nc1C", "Potency": "inconclusive [inhibitor, partial curve, poor fit]"}, {"compound": "Cc1ccc(C(C)(C)C)c(OCCOCCN2CCCC2)c1", "Potency": "inactive"}, {"compound": "CCc1nc(SCC(=O)N2c3ccccc3Sc3ccccc32)c2ccccc2n1", "Potency": "inconclusive [inhibitor, partial curve, poor fit]"}, {"compound": "O=P(c1ccccc1)(c1ccccc1)C(O)c1ccc(Br)cc1", "note": "(configuration not stated)", "Potency": "inconclusive [inhibitor, single point]"}, {"compound": "CCS(=O)(=O)N1Cc2ccccc2CC1C(=O)Nc1nnc(SCc2c(Cl)cccc2Cl)s1", "note": "(configuration not stated)", "Potency": "inconclusive [inhibitor, single point]"}, {"compound": "CCn1c2c(c(=N)c3c1CCC3)CCC2", "Potency": "active: 0.465 µM"}]}]}
